102 sequences from a collection of fitness landscapes (doi:10.1038/s41467-024-54723-y) can be followed below.

In all, about 18,000 sequences were measured (“TetR repression strength (sort-seq, GFP reporter)”: median about 0.23, highest 2% from about 0.68 on). Some of the results follow.

UniProt P04483, sequence (P04483 whole entry): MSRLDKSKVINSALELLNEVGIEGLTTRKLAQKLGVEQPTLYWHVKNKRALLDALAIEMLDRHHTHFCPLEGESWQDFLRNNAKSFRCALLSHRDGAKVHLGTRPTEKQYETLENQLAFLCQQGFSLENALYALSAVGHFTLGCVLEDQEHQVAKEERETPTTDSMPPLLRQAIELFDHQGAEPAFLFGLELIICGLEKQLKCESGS

The target in the test is TetR (class B, Tn10) (UniProt P04483). In words: TetR repression strength (sort-seq, GFP reporter) (relative to tetO2 = 1); higher = stronger repression. As to conditions: E. coli. In outline:
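E. coli SIG10-MAX carried a low-copy plasmid library with eight randomized operator positions between a constitutive promoter and sfGFP, with TetR constitutively expressed. Cells grew 5 h at 37 °C in LB with 50 µg/mL chloramphenicol, then 10^6 cells were FACS-sorted into 13 fluorescence bins, each Illumina-sequenced. Repression strength is the top bin index plus one minus the read-weighted mean bin, divided by the wild-type operator value. Three independent transformations; variants with ≥30 reads in all replicates and CV ≤0.5 were averaged.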
The sequence TCCCCCTTAGTTGTCGAGA had a TetR repression strength of 0.307.
Take TCCCTTGAAGTACTGGAGA: the TetR repression strength was found to be 0.228.
On to TCCCCGGGAGTGTTCGAGA, for which the TetR repression strength was 0.0396.
With TCCCGAAGAGTTCGCGAGA, the TetR repression strength was 0.0791.
On to TCCCACGTAGTGTTGGAGA, for which the TetR repression strength was found to be 0.155.
Take TCCCTATCAGTGCGAGAGA: the TetR repression strength turned out to be 0.452.
Consider TCCCGCTAAGTCGAGGAGA, for which the TetR repression strength amounted to 0.118.
With TCCCGAGCAGTCAAGGAGA the figure was 0.329.
On to TCCCATTAAGTCAGGGAGA, for which the TetR repression strength came to 0.2.
Consider TCCCCATAAGTATTGGAGA, for which the TetR repression strength was 0.32.
The result for TCCCACGTAGTGTCGGAGA reads 0.134.
For the sequence TCCCCAGGAGTTTCTGAGA, the TetR repression strength stood at 0.59.
The result for TCCCTTGGAGTAGGGGAGA reads 0.274.
With TCCCGAAGAGTGCTCGAGA the figure was 0.813; with TCCCCGATAGTTGAGGAGA, 0.0265; with TCCCGGCCAGTGTATGAGA, 0.227.
Consider TCCCCTATAGTGCAGGAGA, for which the TetR repression strength is 0.217.
With TCCCGGCGAGTTAGTGAGA the figure was 0.343; with TCCCTCGGAGTCCCCGAGA, 0.416.
Consider TCCCTCTAAGTGCTTGAGA, for which the TetR repression strength was 0.303.
As to TCCCCGGGAGTAGATGAGA, the TetR repression strength worked out at 0.0346.
As for TCCCATAGAGTGGGGGAGA, the TetR repression strength worked out at 0.137.
With TCCCCTTAAGTACAGGAGA, the TetR repression strength came out at 0.72.
TCCCAGCGAGTAGCCGAGA yielded a TetR repression strength of 0.216.
For TCCCCGGCAGTAGATGAGA, the TetR repression strength stood at 0.195.
With TCCCTCGTAGTAGTAGAGA the figure was 0.204; with TCCCCGACAGTGTGCGAGA, 0.104.
The result for TCCCAAACAGTTCCTGAGA reads 0.221; that for TCCCGTTGAGTAACTGAGA, 0.583.
The result for TCCCCGGGAGTTGCGGAGA reads 0.232; that for TCCCATGCAGTTCGAGAGA, 0.14.
TCCCCGGGAGTCCATGAGA displayed a TetR repression strength of 0.227.
The sequence TCCCTGCCAGTTGTGGAGA gave a TetR repression strength of 0.217.
Turning to TCCCCATGAGTGTGCGAGA, the TetR repression strength came out at 0.0532.
On to TCCCAGTAAGTGGCCGAGA, for which the TetR repression strength came to 0.111.
The result for TCCCGTATAGTGTGGGAGA reads 0.00296.
In turn, TCCCAAGGAGTCGTTGAGA had a TetR repression strength of 0.119.
The result for TCCCACAAAGTCGAAGAGA reads 0.275; that for TCCCATCCAGTGTAGGAGA, 0.144.
In turn, TCCCGAAAAGTGCGCGAGA registered a TetR repression strength of 0.375.
With TCCCCGGGAGTAGGGGAGA, the TetR repression strength came to 0.3.
Take TCCCCGTTAGTATGGGAGA: the TetR repression strength amounted to 0.0862.
Consider TCCCGGGGAGTACGAGAGA, for which the TetR repression strength was 0.451.
As to TCCCCCGAAGTGAACGAGA, the TetR repression strength was 0.193.
TCCCTCCGAGTTGTTGAGA registered a TetR repression strength of 0.127.
The sequence TCCCGATAAGTTATGGAGA showed a TetR repression strength of 0.375.
Consider TCCCGTGAAGTGCGTGAGA, for which the TetR repression strength amounted to 0.199.
TCCCTTCTAGTAGCCGAGA showed a TetR repression strength of 0.434.
TCCCTTCGAGTAATGGAGA gave a TetR repression strength of 0.299.
The result for TCCCGAGAAGTTCTCGAGA reads 0.163.
As to TCCCCTCAAGTCGGTGAGA, the TetR repression strength is 0.032.
For TCCCTTTTAGTATTAGAGA, the TetR repression strength was 0.347.
In turn, TCCCTGCGAGTCAGTGAGA showed a TetR repression strength of 0.0497.
The result for TCCCCGGTAGTTCGAGAGA reads 0.0814; that for TCCCTCGTAGTGCAGGAGA, 0.217; that for TCCCAGAGAGTTGCAGAGA, 0.326.
TCCCAGGGAGTTGTTGAGA: the TetR repression strength came to 0.213.
Take TCCCGCCGAGTCGAAGAGA: the TetR repression strength is 0.242.
For the sequence TCCCTGGTAGTCGGCGAGA, the TetR repression strength came to 0.208.
With TCCCGAACAGTATCGGAGA the figure was 0.194; with TCCCCATCAGTTGTTGAGA, 0.335.
TCCCGTTGAGTAGTAGAGA: the TetR repression strength was found to be 0.223.
In the case of TCCCGACAAGTGGGGGAGA, the TetR repression strength came out at 0.183.
The sequence TCCCTTGGAGTACTGGAGA had a TetR repression strength of 0.174.
Take TCCCGTCGAGTGTTGGAGA: the TetR repression strength came to 0.139.
As for TCCCGGGTAGTCCGGGAGA, the TetR repression strength came to 0.112.
Consider TCCCTAAGAGTGATTGAGA, for which the TetR repression strength was found to be 0.486.
TCCCAGGGAGTGAGCGAGA yielded a TetR repression strength of 0.231.
For TCCCGTCAAGTGCAAGAGA, the TetR repression strength came out at 0.394.
For the sequence TCCCTGACAGTCTATGAGA, the TetR repression strength turned out to be 0.21.
The result for TCCCATTTAGTGGTGGAGA reads 0.218; that for TCCCTCAGAGTGCCGGAGA, 0.563.
The result for TCCCTTCGAGTTCTGGAGA reads 0.328; that for TCCCTCGGAGTCCACGAGA, 0.23.
Consider TCCCGTTGAGTGAATGAGA, for which the TetR repression strength is 0.467.
TCCCTGGTAGTGACTGAGA registered a TetR repression strength of 0.0995.
In turn, TCCCTGGAAGTGGTAGAGA returned a TetR repression strength of 0.163.
TCCCACAGAGTAACTGAGA came in with a TetR repression strength of 0.348.
TCCCCTACAGTGGACGAGA: the TetR repression strength amounted to 0.0338.
With TCCCTTTTAGTCTTGGAGA, the TetR repression strength was determined as 0.0784.
TCCCCTTAAGTTTGAGAGA returned a TetR repression strength of 0.42.
Consider TCCCGTCCAGTGGGGGAGA, for which the TetR repression strength amounted to 0.163.
Take TCCCCAACAGTGAGTGAGA: the TetR repression strength worked out at 0.185.
TCCCGCGCAGTGATCGAGA returned a TetR repression strength of 0.261.
TCCCTTTAAGTGTCTGAGA: the TetR repression strength was found to be 0.27.
TCCCACTGAGTCTTGGAGA gave a TetR repression strength of 0.0452.
As for TCCCCGCGAGTCCGGGAGA, the TetR repression strength was determined as 0.119.
For TCCCGGGGAGTTAGCGAGA, the TetR repression strength worked out at 0.135.
As for TCCCCTAAAGTGTTTGAGA, the TetR repression strength is 0.416.
As to TCCCATGCAGTAGTCGAGA, the TetR repression strength came out at 0.183.
Sequence TCCCGGGAAGTGAGTGAGA displayed a TetR repression strength of 0.202.
In turn, TCCCTTACAGTCTACGAGA displayed a TetR repression strength of 0.405.
Take TCCCCGTAAGTTTGAGAGA: the TetR repression strength was determined as 0.211.
As for TCCCATGCAGTGGCCGAGA, the TetR repression strength stood at 0.111.
The sequence TCCCTGTTAGTGGGAGAGA registered a TetR repression strength of 0.189.
The result for TCCCAAAGAGTCAGAGAGA reads 0.192.
Turning to TCCCAGTCAGTAGGTGAGA, the TetR repression strength turned out to be 0.196.
On to TCCCTAGCAGTCCTCGAGA, for which the TetR repression strength was determined as 0.336.
Sequence TCCCTCGCAGTGGTCGAGA showed a TetR repression strength of 0.284.
The sequence TCCCGACTAGTAATTGAGA displayed a TetR repression strength of 0.162.
For TCCCGGCCAGTCGTAGAGA, the TetR repression strength worked out at 0.276.
TCCCCTCCAGTCGACGAGA came in with a TetR repression strength of 0.412.
